About 7,500 (2.1%) of roughly 360,000 compounds were called active. The inconclusive results got no clear call from the source; some entries with a clear call stand among them for comparison. Calls come from the whole dose curve; as a rule, active = well fitted cell-killing curve with a large enough effect; inconclusive = small, poorly fitted or top-dose-only effect, or effect the other way, or another doubt; inactive = no such curve, though single readings can be large or run the other way. No potency is given beside an inconclusive call; the fits are too rough.
Experiment: qHTS for induction of synthetic lethality in tumor cells producing 2HG: qHTS for the HT-1080-IDH1KD cell line;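 for activity, negative = toxicity: 0% = DMSO wells and -100% = cell-free medium wells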
Details: HT-1080 IDH1 knockdown viability, ATP luminescence, 48 h; activity, negative = toxicity: at 46.1 µM (top of the series) unless noted
Procedure, shortened: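 IDH1KD HT-1080 cells, 750/well, RPMI + 5% FBS; compound pinned after 2 h settling; 48 h, 37 °C; CellTiter-Glo luminescence; % activity normalised to DMSO and no-cell wells; curves fitted, classed by r2 and efficacy.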
Potency is the fitted concentration of half-maximal effect; tags give direction and shape of the fitted curve.

Compound	Potency	activity, negative = toxicity
O=C(c1[nH]ncc1-c1ccc(Cl)cc1)C1CO1 (stereo not drawn)	inconclusive [cytotoxic, single point]	
CO/N=C/NC(=O)Cc1cn(-c2ncc(C(F)(F)F)cc2Cl)c2ccccc12	inconclusive [cytotoxic, partial curve]	
CN=c1scc(-c2ccc(F)cc2)n1/N=C/c1ccc(O)c(O)c1	active: 8.2 µM	
CNCCCC12CCC(c3ccccc31)c1ccccc12	inconclusive [cytotoxic, single point]	
COc1cc(-c2nc(C(=O)NCC3CCCO3)cc3c2[nH]c2ccccc23)cc(OC)c1OC (stereo not drawn)	inconclusive [cytotoxic, single point]	
CCCCCCSc1ccc(-c2nc3ccc(C)cn3c2NCc2ccccc2)cc1OC	inconclusive [cytotoxic, single point]	
Cn1c(O)c(N=NC(=O)c2ccccc2O)c2ccccc21	inconclusive [cytotoxic, partial curve]	
CN(C(=O)C1CCCN(c2ncnc3c2nc2n3CCCCC2)C1)c1cccc(Cl)c1 (stereo not drawn)	inconclusive [cytotoxic, single point]	
Cc1cc(NC(=O)Nc2cccc(Cl)c2)n(-c2ccccn2)n1	inconclusive [cytotoxic, single point]	
O=C(Nc1cccc(C(F)(F)F)c1)n1cc(-c2ccccn2)c(N2CCOCC2)n1	inconclusive [cytotoxic, single point]	
Cc1cccc(C(=O)NNC(=O)c2ccccc2O)c1	inconclusive [cytotoxic, partial curve, poor fit]	
COc1ccc(C(=O)NC(=S)NNC(=O)CCc2ccccc2)cc1	inconclusive [cytotoxic, partial curve]	
Cc1cc(C)c2c(c1)-c1c(ssc1=S)C(C)(C)N2C(=O)CSc1nncn1C	active: 18.4 µM	
CC1(C)Cc2c(cnn2-c2ccc(F)cc2)C(NC(=O)c2ccco2)C1 (stereo not drawn)	inactive	
CCOc1ccc2c(c1)-c1c(ssc1=S)C(C)(C)N2C(=O)c1ccco1	active: 5.17 µM	
Cc1ccccc1Cn1nc(C)c(NC(=O)c2noc3c2CC(C(C)(C)C)CC3)c1C (stereo not drawn)	inconclusive [cytotoxic, single point]	
Cc1ccc(C(=O)NC(NC(=O)c2ccc(C)cc2)C(Cl)Cl)cc1	inconclusive [cytotoxic, single point]	
C=CCn1c(O)c(N=NC(=S)Nc2cccc(C)c2)c2ccccc21	inconclusive [cytotoxic, full curve]	
CCNC(=O)C(=O)N/N=C/c1cc([N+](=O)[O-])ccc1O	inconclusive [cytotoxic, single point]	
Cc1ccc(-c2nnc(CSc3nc(C(C)C)nc4sc(C)c(C)c34)o2)cc1	inactive	
O=C1Cc2c([nH]c3ccc(Br)cc23)-c2ccccc2N1	inconclusive [cytotoxic, single point]	
COCCNC(=O)c1cccc(OC2CCN(C(C)COc3ccccc3)CC2)c1 (stereo not drawn)	inactive	
CSc1nc(N)nc2c1ncn2CC(=O)NCc1ccc2c(c1)OCO2	inactive	
Cc1nc(C(=O)NNC(=O)c2ccccc2)c(C(F)(F)F)o1	inconclusive [cytotoxic, partial curve, poor fit]	
COc1ccc(-c2csc3nc(-c4ccccc4OC)oc(=O)c23)cc1	inconclusive [cytotoxic, single point]	

Compound	Potency	activity, negative = toxicity
Clc1ccc(-c2cnc3cccnn23)cc1	inactive	
O=C(Nc1ccccc1F)c1ccc([N+](=O)[O-])s1	inconclusive [cytotoxic, partial curve]	
CC(C)NC(=O)CCCN1C(=O)c2ccccc2Sc2ncccc21	inactive	
Clc1ccc(Nc2ccc(NCc3ccccc3)nn2)cc1	inactive	
Cc1coc2c1C(=O)C(=O)c1c-2ccc2c1CCCC2(C)C	inactive	
Cc1cc(OCC(O)CN2CCc3ccccc3C2)ccc1Cl (stereo not drawn)	inconclusive [cytotoxic, single point]	
COc1ccc(NC2CCCN(C(=O)CCc3cn[nH]c3)C2)cc1 (stereo not drawn)	inactive	
O=C(CSc1nnc(SCc2ccc(Cl)cc2)s1)N/N=C/c1c[nH]c2ccccc12	active: 18.4 µM	
CC(C)(C)c1cc(C(=O)NNc2ccc(OC(F)(F)F)cc2)n(Cc2ccccc2)n1	active: 7.31 µM	
CC(C)N(C(=O)[C@H]1C[C@H](CC(=O)NCCCN(C)C)C(=O)N2CCc3c([nH]c4ccc(Cl)cc34)[C@]12C)C(C)C	inconclusive [cytotoxic, single point]	
Cn1c(/N=C/c2c(O)ccc3ccccc23)nc2ccccc21	inconclusive [cytotoxic, single point]	
Cc1ccc(CC2(OCCN(C)C)CCC(C(C)(C)C)CC2)cc1 (stereo not drawn)	inactive	
Cc1ccc(Sc2c([N+](=O)[O-])c(=O)n(C)c3ccccc23)cc1	inactive	
NC(=O)Cn1cc(/C=N\NS(=O)(=O)c2ccccc2)c2ccccc21	inactive	
O=[N+]([O-])c1ccc(CN2CCN(Cc3c[nH]c4ccccc34)CC2)cc1	inconclusive [cytotoxic, single point]	
Cc1ccc(N2C(N)=NC(N)=NC2(C)C)c(C)c1	active: 20.6 µM	
CCCCCNc1nc2sc3c(c2c(=O)n1-c1cccc(Cl)c1)CCN(C)C3	inconclusive [cytotoxic, single point]	
O=C(Oc1ccc2ccc(O)cc2c1)C1CCCCC1	inconclusive [cytotoxic, single point]	
Cc1ccccc1NC(=O)CN1C(=O)c2cccnc2Oc2ccc(Cl)cc21	inactive	
COc1ccc(-c2ccc(CCC(=O)O)n2CC2CCCO2)cc1 (stereo not drawn)	inconclusive [cytotoxic, single point]	
CCOC(=O)C1=C(O)c2ccccc2C(=O)/C1=C\c1ccc(C)cc1	active: 18.4 µM	
CSCc1cc(N(C)C)nc(SCc2ccc(Cl)cc2Cl)n1	inconclusive [cytotoxic, single point]	
Cn1c(=O)c2cc(NC(=O)CCc3ccc4c(c3)OCO4)ccc2n1Cc1ccc(F)cc1		inconclusive: -26.1% [cytotoxic]
CC1CCC(NC(=O)CN2C(=O)c3cccnc3Oc3ccc(Cl)cc32)CC1 (stereo not drawn)	inactive	
Cc1ccc(CC(=O)N2CCN(c3ccc([N+](=O)[O-])cc3)CC2)cc1	inconclusive [cytotoxic, single point]	

Compound	Potency	activity, negative = toxicity
CCCCC(=O)NC(c1ccccc1)c1ccc2cccnc2c1O (stereo not drawn)	inconclusive [cytotoxic, full curve]	
COc1cc(NC(=O)CN2c3cccc4cccc(c34)S2(=O)=O)cc(OC)c1OC	inconclusive [cytotoxic, single point]	
CC1CCCN(CCOCCOc2ccc(Cl)cc2Br)C1 (stereo not drawn)	active: 11.2 µM	
Nc1nc(-c2cc(O)ccc2[N+](=O)[O-])cc(-c2ccccc2)c1[N+](=O)[O-]	inactive	
COC(/C(=N/O)c1ccc(Cl)cc1)c1ccccc1 (stereo not drawn)	inconclusive [cytotoxic, single point]	
COc1ccc(N2C(=O)C3C(C2=O)C(C(=O)c2ccc(Cl)cc2)N2CCCC32)cc1 (stereo not drawn)	active: 18.4 µM	
CC(CC(=O)N(C)c1c(N)n(Cc2ccccc2)c(=O)[nH]c1=O)c1ccccc1 (stereo not drawn)	inactive	
N#C/C(=C\c1cn(CCOc2ccccc2)c2ccccc12)C(=O)NCc1ccco1	inconclusive [cytotoxic, single point]	
COc1ccc(Nc2nc(NC(C)C)nc3ccsc23)cc1OC	inactive	
CC1CCC(NC(=O)Nc2cccs2)CC1 (stereo not drawn)	inactive	
Cc1ccc(-c2nnc(N3CCCCC3)c3ccccc23)cc1S(=O)(=O)N1CCN(C)CC1	inconclusive [cytotoxic, single point]	
COc1ccc2c(C(=O)CN3CCN(c4ccccc4)CC3)c[nH]c2c1	inactive	
COc1ccc([C@H]2[C@H](C(=O)C(C)(C)C)N3N=Cc4ccccc4C3C23C(=O)OC(C)(C)OC3=O)cc1 (stereo partly drawn)	inactive	
Cc1cc(NC(=O)CS(=O)(=O)c2cn(Cc3cccc(Br)c3)c3ccccc23)no1	active: 20.6 µM	
CC(C)(C)Nc1nc(Cl)nc(N(C#N)CN2C(=O)c3ccccc3S2(=O)=O)n1	inconclusive [cytotoxic, single point]	
COc1ccc(-n2c(=O)/c(=C\c3cccs3)s/c2=C(/C#N)C(=O)N2CCN(C)CC2)cc1	inconclusive [cytotoxic, single point]	
Nc1cccc(-c2nc3cc(S(=O)(=O)c4ccc5oc(-c6cccc(N)c6)nc5c4)ccc3o2)c1	inconclusive [cytotoxic, single point]	
c1ccc(-c2noc(-c3cccs3)n2)nc1	inconclusive [cytotoxic, partial curve, poor fit]	
COCCn1c(=N)c(C(=O)NCc2ccco2)cc2c(=O)n3ccccc3nc21	inconclusive [cytotoxic, partial curve]	
Cc1cc(NC(=O)Cn2c(C)nc3ccccc3c2=O)ccc1Br	inactive	
Cc1cccc(OCC(=O)N/N=C\c2cc3c(cc2[N+](=O)[O-])OCO3)c1C	inconclusive [cytotoxic, single point]	
CN(c1ccccc1)S(=O)(=O)c1cccc(C(=O)Nc2nn[nH]n2)c1	inactive	
COc1ccc2cc(C(=O)/C=C/c3cc(OC)c(O)c(OC)c3)ccc2c1	active: 16.4 µM	

— PubChem BioAssay AID686971 (National Center for Advancing Translational Sciences (NCATS), 2013)
